Results as given in PubChem BioAssay AID1476 (National Center for Advancing Translational Sciences (NCATS), 2009).
Several values for one entry are separate records, joined by “and”; a condition that tells them apart may be missing. Equal values may be shown once. Among all 200,000 compounds or so, about 4,500 (2.2%) were called active. Inconclusive results, whose numbers are uncertain, are shown with a selection of clear calls. The call rests on the fitted dose curve; in most records, active means well fitted inhibition curve with a large enough effect; inconclusive means small, poorly fitted or top-dose-only effect, or effect the other way; inactive means flat fitted curve, though single readings scatter. A potency beside an inconclusive call is a rough fit, not a confirmed value.

Biological target: Cruzipain (Trypanosoma cruzi) (UniProt P25779)
Chain of UniProt P25779 (P25779 whole entry, looked up): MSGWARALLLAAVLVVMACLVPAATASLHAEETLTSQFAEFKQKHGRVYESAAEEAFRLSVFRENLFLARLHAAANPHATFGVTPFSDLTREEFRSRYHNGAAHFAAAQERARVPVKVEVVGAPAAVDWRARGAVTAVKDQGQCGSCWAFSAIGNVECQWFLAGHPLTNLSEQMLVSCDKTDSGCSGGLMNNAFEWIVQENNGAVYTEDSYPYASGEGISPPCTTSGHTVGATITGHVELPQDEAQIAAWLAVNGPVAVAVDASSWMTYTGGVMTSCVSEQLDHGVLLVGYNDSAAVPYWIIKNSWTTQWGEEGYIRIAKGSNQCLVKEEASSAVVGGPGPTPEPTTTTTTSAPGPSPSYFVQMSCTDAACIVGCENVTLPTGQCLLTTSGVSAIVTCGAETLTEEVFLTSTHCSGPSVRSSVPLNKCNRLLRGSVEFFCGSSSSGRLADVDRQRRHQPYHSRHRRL
Test: qHTS Assay for Promiscuous and Specific Inhibitors of Cruzain (without detergent); further: nearly all actives have a fitted effect of over 40% in size;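 on max response, negative = inhibition: plate controls were enzyme without inhibitor for no effect and buffer without enzyme for full effect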
Settings: purified cruzain, Z-FR-AMC fluorescence, no detergent
Outline: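 Purified cruzain at 1.5 nM, pre-incubated 15 min with compound at room temperature in 100 mM sodium acetate pH 5.5, 5 mM DTT, 0.00005% Triton X-100. Reaction started with 2 uM Z-FR-AMC; AMC fluorescence increase over 60 s gives rate.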
Potency means the concentration at half of the fitted maximal effect; tags describe the fitted curve by direction and shape.

Row | SMILES | Potency | max response, negative = inhibition
1 | COc1ccc(Cc2nc3ccc(C(=O)NCc4ccc(OC)cc4OC)cc3o2)cc1 | inconclusive: 31.6 µM [activator, single point] | –
2 | CCc1ccccc1NC(=O)C1CCN(S(=O)(=O)c2ccc3[nH]c(=O)ccc3c2)CC1 | – | inactive: 9.33%
3 | Cc1ccc(CNC(=O)c2cn(C)c(=O)c3c2c2ccccc2n3C)o1 | inconclusive: 31.6 µM [activator, single point] | –
4 | CC(C)(C)c1ccc(C(=O)Nc2cc(-c3nc4ccccc4o3)ccc2Cl)cc1 | inconclusive: 6.31 µM [inhibitor, single point] | –
5 | CCOC(=O)c1c(NS(=O)(=O)c2ccccc2)n(CCCOC)c2nc3ccccc3nc12 | inconclusive: 39.8 µM [activator, single point] | –
6 | Cc1ccccc1NC(=O)OCc1cn(-c2ccc(Cl)cc2)nn1 | inconclusive: 39.8 µM [inhibitor, single point] | –
7 | COc1nc(-c2ccccc2)ccc1-c1noc(-c2cccnc2)n1 | inconclusive: 39.8 µM [activator, single point] | –
8 | CN(C)c1cc(-c2cccc(NS(C)(=O)=O)c2)ncn1 | active: 15.8 µM | –
9 | O=C(N/N=C/c1cc(Br)ccc1O)C(c1ccncc1)N1CCOCC1 (stereo not drawn) | – | inactive: -4.95%
10 | C#CCCCCCCCCCCCC(O)CC(O)CO (stereo not drawn) | inconclusive: 25.1 µM [activator, partial curve] | –
11 | COc1cc(-c2nnc(SCC3(c4ccccc4)OCCO3)o2)cc(OC)c1OC | inconclusive: 39.8 µM [activator, single point] | –
12 | COc1ccccc1NC(=O)CN(C)S(=O)(=O)c1ccc2c(c1)c(=O)n(C)c(=O)n2C | – | inactive: -0.558%
13 | COc1ccc(N2CCN(C(CNC(=O)C(=O)NCCc3ccccc3)c3cccnc3)CC2)cc1 (stereo not drawn) | – | inactive: 15.3%
14 | COc1ccc(-c2nnc(CSc3ncnc4sc5c(c34)CCC5)o2)cc1OC | inconclusive: 31.6 µM [activator, single point] | –
15 | O=C1C(Nc2ccccc2)=CC(c2ccc(Br)cc2)N1c1ccccc1 (stereo not drawn) | – | inactive: -11.9%
16 | CC(/C=N/NC(=O)c1ccc(Br)cc1)=C\c1ccccc1 | inconclusive: 25.1 µM [inhibitor, single point] | –
17 | Cc1nn(Cc2ccc(Cl)cc2)c(=O)n1N(C)c1ncc(C(F)(F)F)cc1Cl | inconclusive: 39.8 µM [activator, single point] | –
18 | Oc1c(C(c2ccc(F)cc2)N2CCOCC2)sc2nc(-c3ccco3)nn12 (stereo not drawn) | – | inactive: -4.05%
19 | CCCCOc1ccc(C(=O)Nc2ccc(N3CCN(C(=O)C(C)C)CC3)cc2)cc1 | inconclusive: 20 µM [activator, partial curve] | –
20 | CCOC(=O)c1ccc(NC(=O)c2c(N3CCCC3=O)c3cc(OC)ccc3n2C)cc1 | inconclusive: 39.8 µM [activator, single point] | –
21 | COc1ccc(C(=O)c2ccccc2)c2c(O)ccc(C(=O)c3ccccc3)c12 | inconclusive: 15.8 µM [activator, partial curve] | –
22 | Cc1nc(NC(=O)c2ccc([N+](=O)[O-])cc2Cl)sc1C(=O)N(C)C | – | inactive: -13.6%
23 | C=CCOC(=O)N[C@@H](c1cccs1)C(C(C)=O)C(C)=O | – | inactive: -2.7%

Row | SMILES | Potency | max response, negative = inhibition
24 | Cc1cccc(N2CC(C(=O)Nc3nnc(SCC(=O)Nc4cc(C)on4)s3)CC2=O)c1 (stereo not drawn) | active: 10 µM | –
25 | CCOC(=O)c1ccccc1NC(=O)c1ccc2c(=O)n3c(nc2c1)CCCCC3 | inconclusive: 25.1 µM [activator, partial curve] | –
26 | CCc1cccc(NC(=O)c2cc3c(=O)n(Cc4ccc(OC)cc4)ccc3nc2C)c1 | inconclusive: 39.8 µM [activator, single point] | –
27 | Cc1ccc(N2C(=O)N(CC(=O)C(C)(C)C)c3ccccc3S2(=O)=O)cc1C | – | inactive: 13.1%
28 | O=S(=O)(Cc1ccccc1)N1CCN(c2ccccc2)CC1 | inconclusive: 39.8 µM [inhibitor, single point] | –
29 | COC(=O)[C@@]1(Cc2ccc(F)cc2)[C@H]2c3cc(C(=O)N(C)C)n(Cc4ccccc4)c3C[C@H]2CN1C(=O)c1ccccc1 | inconclusive: 31.6 µM [activator, single point] and inconclusive: 12.6 µM [activator, partial curve] | –
30 | CCN(CC)S(=O)(=O)c1cccc(-c2nnc(SCC(N)=O)n2CCc2ccccc2)c1 | inconclusive: 31.6 µM [activator, single point] | –
31 | CC[C@@H](C)[C@H](NC(=O)OC(C)(C)C)c1nnc(S(=O)(=O)Cc2cc(C)ccc2C)o1 | active: 15.8 µM | –
32 | COc1ccccc1-c1cc(C(=O)Nc2ccc(F)cc2F)no1 | active: 12.6 µM | –
33 | Cc1onc(-c2ccccc2)c1C(=O)N1CCCN(C(=O)c2c(-c3ccccc3)noc2C)CC1 | inconclusive: 31.6 µM [activator, single point] | –
34 | CN(C)C(=O)c1ccc(-c2ccc3ncnc(N4CCOCC4)c3c2)cc1 | – | inactive: -17.2%
35 | O=C(Nc1ccc(OC(=O)c2ccccc2)c(-c2nc3ccccc3s2)c1)c1ccccc1 | active: 7.94 µM | –
36 | COc1ccc(-n2c(N)c(-c3nc4ccccc4n3C)sc2=S)cc1 | inconclusive: 1 µM [inhibitor, full curve, poor fit] | –
37 | Cc1nc(SCC(=O)Nc2ccc(Cl)cc2[N+](=O)[O-])nc(C)c1C | – | inactive: -27.8%
38 | Cc1[nH]c(=O)c(C#N)c2c1CCCC2 | inconclusive: 1.58 µM [inhibitor, single point] | –
39 | COc1cc(OC)cc(N2C(=O)N(CC(=O)c3ccc(F)cc3)c3ccccc3S2(=O)=O)c1 | inconclusive: 15.8 µM [activator, partial curve] | –
40 | O=C(COC(=O)CNC(=O)c1ccc(Cl)cc1)Nc1ncc(C(F)(F)F)cc1Cl | active: 3.98 µM | –
41 | COc1ccc(-c2noc(Cn3c(=O)c4ccccc4n(CC(=O)Nc4cccc(OC)c4)c3=O)n2)cc1 | inconclusive: 39.8 µM [inhibitor, single point] | –
42 | COc1cccc(NC(=O)N2CCN3CCCCC3C2)c1 (stereo not drawn) | – | inactive: 6.79%
43 | CCCOC(=O)CSc1ncnc2sc3c(c12)CCC(C)C3 (stereo not drawn) | – | inactive: 3.7%
44 | CCCCCCCCCCCCCCCCOCC(CO)OC(C)=O (stereo not drawn) | – | inactive: -0.898%
45 | O=S(O)O.O=S(O)O.[Co].[NH2-].[NH2-].[NH2-].[NH2-] | – | inactive: 9.91%
46 | Cc1ccc(N(C)S(=O)(=O)c2cccc(C(=O)Nc3nc4ccccc4[nH]3)c2)cc1 | inconclusive: 31.6 µM [inhibitor, single point] | –

Row | SMILES | Potency | max response, negative = inhibition
47 | c1nc(NC2CCCCC2)c2[nH]cnc2n1 | – | inactive: -4.04%
48 | CCCCCSc1nc2sc3c(c2c(=O)n1-c1ccccc1)CCN(C(C)=O)C3 | inconclusive: 3.98 µM [activator, full curve] | –
49 | O=c1[nH]c(=O)n(C2CCCCC2)c(O)c1C=Nc1ccc(N2CCOCC2)cc1 | inconclusive: 39.8 µM [activator, single point] | –
50 | COc1ccc(-c2oc3ncn4nc(COc5c(C)cccc5C)nc4c3c2-c2ccc(OC)cc2)cc1 | inconclusive: 3.98 µM [inhibitor, partial curve] | –
51 | COC(=O)c1c(-c2cccs2)csc1NC(=O)COc1c(C)ccc(C)c1C | active: 25.1 µM | –
52 | COc1cccc(/C=N/n2c(=S)n(C)c3cc(C)c(C)cc32)c1OC | inconclusive: 31.6 µM [inhibitor, single point] | –
53 | c1ccc(-c2csc(N3CCc4ccccc4C3)n2)cc1 | active: 25.1 µM | –
54 | COCCCNC(=O)C(=O)Nc1c2c(nn1-c1cccc(Cl)c1)CSC2 | inconclusive: 39.8 µM [activator, single point] | –
55 | COc1cc(NC(=O)COc2ccc(Cl)cc2)ccc1-c1cc2ccccc2oc1=O | active: 5.01 µM | –
56 | CCOC(=O)c1ccc(NC(=O)N2CCOc3ccccc32)cc1 | active: 10 µM | –
57 | O=C(/C=C/c1ccccc1F)c1cccc([N+](=O)[O-])c1 | inconclusive: 12.6 µM [inhibitor, partial curve] | –
58 | CCCCC(=O)Nc1ccc(C(=O)Nc2ccc(S(=O)(=O)Nc3ccc(C)cc3)cc2)cc1 | inconclusive: 12.6 µM [inhibitor, partial curve] | –
59 | Cc1cc(Br)ccc1NC(=O)C1CCN(S(=O)(=O)c2cccc3nsnc23)CC1 | inconclusive: 7.94 µM [activator, single point] | –
60 | CC1Cc2ccccc2N1c1ncnc2c1nnn2Cc1ccccc1 (stereo not drawn) | inconclusive: 25.1 µM [inhibitor, single point] | –
61 | Cc1ccc(NC2=C/C(=N/S(=O)(=O)c3cccs3)c3ccccc3C2=O)cc1C | active: 10 µM | –
62 | CN1CCN(c2ncc3nc(-c4ccccc4)c(=O)n(C)c3n2)CC1 | inconclusive: 39.8 µM [inhibitor, single point] | –
63 | COc1ccc(-n2c(Cc3cccn3C)nnc2SCC(=O)Nc2ccc3c(c2)OCO3)cc1 | – | inactive: 19.4%
64 | Cc1nc(SCC(=O)OCc2ccccc2)c2c(=O)n(C)c(=O)n(C)c2n1 | inconclusive: 31.6 µM [inhibitor, single point] | –
65 | COC(=O)c1cc(NC(=O)CC2SC(=Nc3ccccc3)N(CCc3c[nH]c4ccccc34)C2=O)cc(C(=O)OC)c1 (stereo not drawn) | active: 5.01 µM | –
66 | O=C(CSc1cnc2ccccc2n1)NC1CCCC1 | – | inactive: 2.22%
67 | Cc1nn(-c2ccc(F)cc2)c2sc(C(=O)N3CCCCCC3)cc12 | inconclusive: 6.31 µM [activator, single point] | –
68 | COc1ccccc1CCNC(=O)c1ccc2c(c1)c(C)c(C)n2Cc1ccc(Cl)cc1 | active: 12.6 µM | –
